For 20 molecules, binding signal results are on record in publication PMC9911399, “Two distinct binding modes provide the RNA-binding protein RbFox with extraordinary sequence specificity”.

Substitutions are numbered along the chain they refer to; changes in the protein carry UniProt numbers. The list shows a part of the results.

First the molecules themselves.
T1: RBFOX1 RRM (Homo sapiens, UniProt Q9NWB1 109-208)
T1 sequence: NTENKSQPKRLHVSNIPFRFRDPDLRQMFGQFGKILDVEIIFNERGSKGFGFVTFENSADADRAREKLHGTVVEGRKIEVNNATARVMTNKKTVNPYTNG

B1: AGAGGGA (DNA:RNA)
RNA: GGGAGACCGGAAUUCAGAUUGUCCAGAGGGAUUAAAUCCCGUCGUAGCCACCA
DNA 1: CAATCTGAATTCCGGTCTCCC
DNA 2: TGGTGGCTACGACGGGATT
B2: UCGUCGU (DNA:RNA)
RNA: B1 RNA with A25U, G26C, A27G, G28U, G29C, A31U
DNA 1: CAATCTGAATTCCGGTCTCCC
DNA 2: TGGTGGCTACGACGGGATT
B3: CAGCUGG (DNA:RNA)
RNA: B1 RNA with A25C, G26A, A27G, G28C, G29U, A31G
DNA 1: CAATCTGAATTCCGGTCTCCC
DNA 2: TGGTGGCTACGACGGGATT
B4: GACGGUA (DNA:RNA)
RNA: B1 RNA with A25G, G26A, A27C, G30U
DNA 1: CAATCTGAATTCCGGTCTCCC
DNA 2: TGGTGGCTACGACGGGATT
B5: AAACGGU (DNA:RNA)
RNA: B1 RNA with G26A, G28C, A31U
DNA 1: CAATCTGAATTCCGGTCTCCC
DNA 2: TGGTGGCTACGACGGGATT
B6: GCGUUAG (DNA:RNA)
RNA: GGGAGACCGGAAUUCAGAUUGUCCGCGUUAGUUAAAUCCCGUCGUAGCCACCA
DNA 1: CAATCTGAATTCCGGTCTCCC
DNA 2: TGGTGGCTACGACGGGATT
B7: UGGGGUU (DNA:RNA)
RNA: B1 RNA with A25U, A27G, G30U, A31U
DNA 1: CAATCTGAATTCCGGTCTCCC
DNA 2: TGGTGGCTACGACGGGATT
B8: AAAUUCC (DNA:RNA)
RNA: B1 RNA with G26A, G28U, G29U, G30C, A31C
DNA 1: CAATCTGAATTCCGGTCTCCC
DNA 2: TGGTGGCTACGACGGGATT
B9: CAAGAUU (DNA:RNA)
RNA: B1 RNA with A25C, G26A, G29A, G30U, A31U
DNA 1: CAATCTGAATTCCGGTCTCCC
DNA 2: TGGTGGCTACGACGGGATT
B10: CUUCCCC (DNA:RNA)
RNA: GGGAGACCGGAAUUCAGAUUGUCCCUUCCCCUUAAAUCCCGUCGUAGCCACCA
DNA 1: CAATCTGAATTCCGGTCTCCC
DNA 2: TGGTGGCTACGACGGGATT
B11: UUGUGCU (DNA:RNA)
RNA: B10 RNA with C25U, U27G, C28U, C29G, C31U
DNA 1: CAATCTGAATTCCGGTCTCCC
DNA 2: TGGTGGCTACGACGGGATT
B12: UAGGCAU (DNA:RNA)
RNA: B6 RNA with G25U, C26A, U28G, U29C, G31U
DNA 1: CAATCTGAATTCCGGTCTCCC
DNA 2: TGGTGGCTACGACGGGATT
B13: UUGAAAC (DNA:RNA)
RNA: B10 RNA with C25U, U27G, C28A, C29A, C30A
DNA 1: CAATCTGAATTCCGGTCTCCC
DNA 2: TGGTGGCTACGACGGGATT
B14: UCGCAAG (DNA:RNA)
RNA: B6 RNA with G25U, U28C, U29A
DNA 1: CAATCTGAATTCCGGTCTCCC
DNA 2: TGGTGGCTACGACGGGATT
B15: CUGCCUC (DNA:RNA)
RNA: B10 RNA with U27G, C30U
DNA 1: CAATCTGAATTCCGGTCTCCC
DNA 2: TGGTGGCTACGACGGGATT
B16: UACCUUU (DNA:RNA)
RNA: B10 RNA with C25U, U26A, U27C, C29U, C30U, C31U
DNA 1: CAATCTGAATTCCGGTCTCCC
DNA 2: TGGTGGCTACGACGGGATT
B17: AUGUUGG (DNA:RNA)
RNA: B6 RNA with G25A, C26U, A30G
DNA 1: CAATCTGAATTCCGGTCTCCC
DNA 2: TGGTGGCTACGACGGGATT
B18: GCAGAAA (DNA:RNA)
RNA: B1 RNA with A25G, G26C, G29A, G30A
DNA 1: CAATCTGAATTCCGGTCTCCC
DNA 2: TGGTGGCTACGACGGGATT
B19: GUAUGCA (DNA:RNA)
RNA: B1 RNA with A25G, G26U, G28U, G30C
DNA 1: CAATCTGAATTCCGGTCTCCC
DNA 2: TGGTGGCTACGACGGGATT
B20: AAAACCG (DNA:RNA)
RNA: B1 RNA with G26A, G28A, G29C, G30C, A31G
DNA 1: CAATCTGAATTCCGGTCTCCC
DNA 2: TGGTGGCTACGACGGGATT

This assay addresses T1, RBFOX1 RRM. The assay is described as follows: EMSA; HiTS-Eq, 1 nM pool, 10 min; buffer printed only for the single-RNA assays: 10 mM Tris pH 7.5, 150 mM NaCl, 3.4 mM EDTA, 0.001% NP-40, 30 C. The conditions noted are these: tags: His6 N-terminal (pET28a); label: 5' 32P. The essentials:
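These values rest on relative association constants, computed from read-count changes of each RNA species versus the control reaction and normalised to the cognate motif. Reads came from free RNA recovered by 8% native PAGE after purified RbFox RRM (wild type or mutant) at increasing concentrations was equilibrated for 10 min in 50 µL with 1 nM of a 5′-radiolabelled pool with 7 randomized nucleotides and DNA-annealed flanks.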
Turning to B1, the binding signal is 0.00877 KA relative to UGCAUGU. For the molecule B2, the binding signal was 0.0184 KA relative to UGCAUGU.

Consider B3, for which the binding signal was 0.0144 KA relative to UGCAUGU. The value for B4 was 0.0151 KA relative to UGCAUGU; that for B5 was 0.0059 KA relative to UGCAUGU; that for B6 was 0.0109 KA relative to UGCAUGU. As for B7, the figure is 0.036 KA relative to UGCAUGU; as for B8, 0.00139 KA relative to UGCAUGU; as for B9, 0.00365 KA relative to UGCAUGU. On to B10, for which the binding signal was 0.000685 KA relative to UGCAUGU. The value for B11 was 0.0255 KA relative to UGCAUGU; that for B12 was 0.0122 KA relative to UGCAUGU; that for B13 was 0.00992 KA relative to UGCAUGU. The value for B14 was 0.0188 KA relative to UGCAUGU; that for B15 was 0.0175 KA relative to UGCAUGU.

As to B16, the binding signal was 0.00509 KA relative to UGCAUGU. As for B17, the figure is 0.0177 KA relative to UGCAUGU. The value for B18 was 0.00736 KA relative to UGCAUGU; that for B19 was 0.0319 KA relative to UGCAUGU. The value for B20 was 0.000294 KA relative to UGCAUGU.
